Measured values: a compilation of properties of binary mixtures (doi:10.1021/je3004904)
Some of these densities may be calculated back from excess volumes.

Experiment: xn = mol fraction of the nth substance listed
Conditions: 101 kPa

Cn1cc[nH+]c1.[Cl-] + Cl[Al](Cl)Cl
mass density [kg/m3]
Conditions	x2 = 0.643	x2 = 0.667
293.15 K	1487.1	1495.2
298.15 K	1482.3	1490.3
303.15 K	1477.5	–
308.15 K	1472.8	1480.9
313.15 K	–	1476.2
318.15 K	1463.3	1471.5
323.15 K	1458.6	1466.8
328.15 K	1453.9	1462.1
333.15 K	1449.3	1457.4
338.15 K	1444.6	1452.7
343.15 K	1440	1448.1

[Cl][Al]([Cl])[Cl] + CCCC[n+]1ccn(C)c1.[Cl-]
Conditions	mass density [kg/m3]
293.15 K, x1 = 0.5	1242.2
293.15 K, x1 = 0.5238	1254.1
293.15 K, x1 = 0.545	1265.9
293.15 K, x1 = 0.5454	1265.5
293.15 K, x1 = 0.5653	1276.8
293.15 K, x1 = 0.583	1287.8
293.15 K, x1 = 0.5834	1287.6
293.15 K, x1 = 0.6001	1297.8
293.15 K, x1 = 0.615	1307.9
293.15 K, x1 = 0.6154	1307.4
293.15 K, x1 = 0.6296	1316.5
293.15 K, x1 = 0.6429	1325.1
293.15 K, x1 = 0.6551	1333.2
293.15 K, x1 = 0.6667	1340.9
298.15 K, x1 = 0.583	1283.6
298.15 K, x1 = 0.615	1303.6
298.15 K, x1 = 0.643	1322.5
298.15 K, x1 = 0.667	1336.3
303.15 K, x1 = 0.5	1234.4
303.15 K, x1 = 0.545	1257.7
303.15 K, x1 = 0.5454	1257.4
303.15 K, x1 = 0.583	1279.4
303.15 K, x1 = 0.5834	1279.1
303.15 K, x1 = 0.6001	1289.3
303.15 K, x1 = 0.615	1299.3
303.15 K, x1 = 0.6154	1298.7
303.15 K, x1 = 0.6296	1307.7
303.15 K, x1 = 0.6551	1324.2
303.15 K, x1 = 0.6667	1331.8
308.15 K, x1 = 0.545	1253.7
308.15 K, x1 = 0.583	1275.2
308.15 K, x1 = 0.643	1313.6
308.15 K, x1 = 0.667	1327.3
313.15 K, x1 = 0.5	1226.6
313.15 K, x1 = 0.5238	1238.1
313.15 K, x1 = 0.545	1249.6
313.15 K, x1 = 0.5653	1260.3
313.15 K, x1 = 0.583	1271.1
313.15 K, x1 = 0.5834	1270.8
313.15 K, x1 = 0.6001	1280.8
313.15 K, x1 = 0.615	1290.8
313.15 K, x1 = 0.6296	1299.1
313.15 K, x1 = 0.6429	1307.5
313.15 K, x1 = 0.643	1309.3
313.15 K, x1 = 0.6551	1315.3
313.15 K, x1 = 0.6667	1322.9
313.15 K, x1 = 0.667	1322.9
318.15 K, x1 = 0.545	1245.6
318.15 K, x1 = 0.583	1267
318.15 K, x1 = 0.615	1286.5
318.15 K, x1 = 0.643	1304.9
323.15 K, x1 = 0.5238	1230.2
323.15 K, x1 = 0.545	1241.6
323.15 K, x1 = 0.5653	1252.2
323.15 K, x1 = 0.583	1262.9
323.15 K, x1 = 0.5834	1262.5
323.15 K, x1 = 0.6001	1272.4
323.15 K, x1 = 0.615	1282.3
323.15 K, x1 = 0.6154	1281.7
323.15 K, x1 = 0.6429	1298.8
323.15 K, x1 = 0.643	1300.5
323.15 K, x1 = 0.6551	1306.5
323.15 K, x1 = 0.6667	1314
323.15 K, x1 = 0.667	1314
328.15 K, x1 = 0.545	1237.6
328.15 K, x1 = 0.583	1258.8
328.15 K, x1 = 0.615	1278
328.15 K, x1 = 0.667	1309.6
333.15 K, x1 = 0.5	1211.3
333.15 K, x1 = 0.545	1233.7
333.15 K, x1 = 0.5454	1233.3
333.15 K, x1 = 0.5653	1244.1
333.15 K, x1 = 0.583	1254.7
333.15 K, x1 = 0.5834	1254.3
333.15 K, x1 = 0.6154	1273.3
333.15 K, x1 = 0.6429	1290.2
333.15 K, x1 = 0.643	1291.9
333.15 K, x1 = 0.6551	1297.8
333.15 K, x1 = 0.6667	1305.2
333.15 K, x1 = 0.667	1305.2
338.15 K, x1 = 0.545	1229.7
338.15 K, x1 = 0.583	1250.6
338.15 K, x1 = 0.615	1269.5
338.15 K, x1 = 0.643	1287.6
338.15 K, x1 = 0.667	1300.8
343.15 K, x1 = 0.5	1203.7
343.15 K, x1 = 0.5238	1214.6
343.15 K, x1 = 0.545	1225.8
343.15 K, x1 = 0.5653	1236
343.15 K, x1 = 0.583	1246.5
343.15 K, x1 = 0.6001	1255.8
343.15 K, x1 = 0.615	1265.2
343.15 K, x1 = 0.6154	1264.9
343.15 K, x1 = 0.6296	1273.4
343.15 K, x1 = 0.643	1283.2
343.15 K, x1 = 0.6551	1289.2
343.15 K, x1 = 0.6667	1296.5
343.15 K, x1 = 0.667	1296.5
